The other results are listed elsewhere or left out.
Each compound was assayed on HSkMC (human skeletal muscle cells) (assay: cytotoxicity call (relative viability < 0.9)). Details: 10 µM.

| SMILES | cytotoxicity call |
| --- | --- |
| C[C@H](CO)N1C[C@H](C)[C@H](CN(C)C(=O)Nc2ccc3c(c2)OCO3)OCCCC[C@H](C)Oc2ccc(NC(=O)Nc3cccc4ccccc34)cc2C1=O | inactive |
| C[C@H]1CN([C@@H](C)CO)C(=O)Cc2cc(NC(=O)CCN3CCOCC3)ccc2O[C@H]1CN(C)CC1CC1 | inactive |
| COCC#Cc1ccc2c(c1)O[C@@H](CN(C)C(=O)COC)[C@H](C)CN([C@@H](C)CO)S2(=O)=O | inactive |
| Cc1noc(C)c1S(=O)(=O)Nc1ccc2c(c1)C(=O)N([C@H](C)CO)C[C@@H](C)[C@@H](CN(C)S(=O)(=O)c1ccccc1)O2 | inactive |
| COc1ccc(NC(=O)Nc2ccc3c(c2)C(=O)N([C@@H](C)CO)C[C@@H](C)[C@@H](CN(C)Cc2ccc(Cl)c(Cl)c2)OCCCC[C@H](C)O3)cc1 | inactive |
| O=C(C[C@@H]1C[C@@H]2c3cc(NC(=O)Nc4ccccc4F)ccc3O[C@@H]2[C@@H](CO)O1)NCc1ccc(Oc2ccccc2)cc1 | inactive |
| C[C@@H]1CCCCO[C@H](CN(C)C(=O)NC2CCCCC2)[C@@H](C)CN([C@@H](C)CO)C(=O)c2cc(NS(=O)(=O)c3cccs3)ccc2O1 | inactive |
| C[C@H]1CN([C@@H](C)CO)C(=O)CCCn2nncc2CO[C@H]1CN(C)S(=O)(=O)c1ccc(Cl)cc1 | inactive |
| O=C(C[C@@H]1CC[C@@H]2[C@H](COC[C@@H](O)CN2C(=O)c2cnccn2)O1)NCc1ccc(Oc2ccccc2)cc1 | inactive |
| O=S(=O)(NCC[C@@H]1CC[C@@H](NS(=O)(=O)c2ccccc2Cl)[C@H](CO)O1)c1ccc(Cl)cc1 | inactive |
| COc1ccc(CN(C)C[C@H]2OCCCC[C@@H](C)Oc3ccc(NC(=O)Nc4ccc(C(F)(F)F)cc4)cc3C(=O)N([C@@H](C)CO)C[C@H]2C)cc1 | active |
| CO[C@H]1/C=C\O[C@@]2(C)Oc3c(C)c(O)c4c(O)c(c(/C=N/N=C/N5CCCCC5)c(O)c4c3C2=O)NC(=O)/C(C)=C\C=C/[C@H](C)[C@H](O)[C@@H](C)[C@@H](O)[C@@H](C)[C@H](OC(C)=O)[C@@H]1C | active |
| CC1CC2C3CCC4=CC(=O)C=CC4(C)C3(F)C(O)CC2(C)C1(O)C(=O)COP(=O)([O-])[O-].[Na+].[Na+] (centres undefined) | inactive |
| Cc1noc(C)c1NC(=O)N(C)C[C@@H]1Oc2ccc(NC(=O)Cn3cnnn3)cc2C(=O)N([C@@H](C)CO)C[C@@H]1C | inactive |
| C[C@@H]1CN([C@@H](C)CO)C(=O)Cc2cc(NC(=O)c3ccncc3)ccc2O[C@@H]1CN(C)C(=O)Nc1ccc2c(c1)OCO2 | inactive |
| CS(=O)(=O)N1CCN(C[C@@H](O)C2CC2)CC1 | inactive |
| C[C@@H]1CN([C@H](C)CO)C(=O)c2c(c3ccccc3n2C)-c2ccccc2CO[C@@H]1CN(C)Cc1ccc(C(=O)O)cc1 | inactive |
| COc1cccc(NC(=O)N(C)C[C@H]2Oc3cc(C#CC4(O)CCCC4)ccc3S(=O)(=O)N([C@H](C)CO)C[C@@H]2C)c1 | inactive |
| C[C@H]1CN([C@@H](C)CO)C(=O)c2cc(NC(=O)CCCN(C)C)ccc2O[C@H]1CN(C)C(=O)NC1CCCCC1 | inactive |
| C[C@H]1CN([C@@H](C)CO)C(=O)Cc2cc(NC(=O)Nc3cccc4ccccc34)ccc2O[C@H]1CN(C)S(=O)(=O)c1cccs1 | inactive |
| Cc1ccc(S(=O)(=O)N(C)C[C@H]2OCCCC[C@@H](C)Oc3ccc(NC(=O)Cc4ccccc4)cc3C(=O)N([C@H](C)CO)C[C@@H]2C)cc1 | inactive |
| Cc1cc(C(=O)O)c(C#N)c(N)n1 | inactive |
| COc1ccc(S(=O)(=O)N(C)C[C@H]2Oc3cc(C#CC4CCCC4)ccc3S(=O)(=O)N([C@H](C)CO)C[C@H]2C)cc1 | inactive |
| C[C@H](CO)N1C[C@H](C)[C@@H](CN(C)C(=O)C2CCCCC2)OCCCC[C@H](C)Oc2ccc(NC(=O)c3ccccc3)cc2C1=O | inactive |
| CN1CC2(CCNCC2)OC1=O | inactive |
| C[C@@H]1CN([C@@H](C)CO)C(=O)c2cc(/C=C/c3ccccc3)cnc2O[C@H]1CN(C)C(=O)Nc1ccc(C(F)(F)F)cc1 | inactive |
| COCCOC(=O)N1C(=O)[C@@]2(c3cc(C#Cc4ccc(OC)cc4)ccc31)[C@H](C(=O)NC[C@H](O)c1ccccc1)[C@H]1C(=O)O[C@H](c3ccccc3)[C@H](c3ccccc3)N1[C@@H]2c1ccc(O)cc1 | inactive |
| C[C@@H]1CN([C@H](C)CO)C(=O)c2cccc(NC(=O)Nc3ccc(C(F)(F)F)cc3)c2O[C@@H]1CN(C)C(=O)Nc1cccc2ccccc12 | active |
| NS(=O)(=O)c1cc2c(cc1Cl)NCNS2(=O)=O | inactive |
